This note sets out measurements from paper PMC8266214.

Amino acid sequences for entries named in this document (tags omitted). Residues count along the entry.
UniProt P15116, residues 160-906: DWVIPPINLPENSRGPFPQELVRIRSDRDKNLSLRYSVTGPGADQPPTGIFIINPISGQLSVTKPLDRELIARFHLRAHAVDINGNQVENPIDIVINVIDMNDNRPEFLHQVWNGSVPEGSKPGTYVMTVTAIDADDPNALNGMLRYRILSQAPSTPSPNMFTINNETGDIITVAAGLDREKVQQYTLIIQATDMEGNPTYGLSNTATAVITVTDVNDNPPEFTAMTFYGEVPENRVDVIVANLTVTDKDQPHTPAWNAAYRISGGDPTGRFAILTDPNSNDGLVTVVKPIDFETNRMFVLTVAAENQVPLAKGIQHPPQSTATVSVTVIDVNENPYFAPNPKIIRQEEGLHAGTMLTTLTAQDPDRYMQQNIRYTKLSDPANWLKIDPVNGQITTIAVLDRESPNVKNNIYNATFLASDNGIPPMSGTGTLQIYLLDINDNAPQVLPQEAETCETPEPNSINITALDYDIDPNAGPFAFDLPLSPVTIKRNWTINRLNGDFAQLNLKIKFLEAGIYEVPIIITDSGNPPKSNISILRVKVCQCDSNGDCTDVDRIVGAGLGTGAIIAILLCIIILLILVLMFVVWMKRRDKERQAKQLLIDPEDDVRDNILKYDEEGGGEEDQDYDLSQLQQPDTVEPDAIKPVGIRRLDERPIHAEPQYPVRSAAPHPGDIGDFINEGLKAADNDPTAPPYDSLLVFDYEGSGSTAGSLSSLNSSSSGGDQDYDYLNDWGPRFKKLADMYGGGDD
UniProt Q02248: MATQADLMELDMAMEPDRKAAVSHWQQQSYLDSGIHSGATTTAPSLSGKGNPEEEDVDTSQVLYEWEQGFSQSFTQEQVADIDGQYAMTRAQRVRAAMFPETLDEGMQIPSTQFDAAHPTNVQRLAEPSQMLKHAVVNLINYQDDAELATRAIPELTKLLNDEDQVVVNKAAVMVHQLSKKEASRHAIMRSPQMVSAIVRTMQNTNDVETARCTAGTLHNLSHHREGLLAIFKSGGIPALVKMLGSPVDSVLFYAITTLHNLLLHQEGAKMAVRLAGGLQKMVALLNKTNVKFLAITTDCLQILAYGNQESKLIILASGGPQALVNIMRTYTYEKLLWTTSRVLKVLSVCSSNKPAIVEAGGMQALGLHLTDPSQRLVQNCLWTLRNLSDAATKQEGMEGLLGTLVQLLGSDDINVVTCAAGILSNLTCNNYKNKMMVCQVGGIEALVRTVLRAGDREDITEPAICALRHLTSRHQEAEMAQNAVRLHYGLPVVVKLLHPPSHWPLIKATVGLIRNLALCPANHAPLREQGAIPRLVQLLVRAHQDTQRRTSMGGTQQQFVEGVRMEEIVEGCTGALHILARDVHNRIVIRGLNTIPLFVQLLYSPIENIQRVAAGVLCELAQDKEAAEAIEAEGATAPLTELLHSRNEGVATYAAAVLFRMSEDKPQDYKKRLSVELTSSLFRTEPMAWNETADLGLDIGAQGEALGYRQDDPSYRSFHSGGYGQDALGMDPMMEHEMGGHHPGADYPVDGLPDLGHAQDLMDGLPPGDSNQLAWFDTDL
UniProt Q99K10, residues 46-843: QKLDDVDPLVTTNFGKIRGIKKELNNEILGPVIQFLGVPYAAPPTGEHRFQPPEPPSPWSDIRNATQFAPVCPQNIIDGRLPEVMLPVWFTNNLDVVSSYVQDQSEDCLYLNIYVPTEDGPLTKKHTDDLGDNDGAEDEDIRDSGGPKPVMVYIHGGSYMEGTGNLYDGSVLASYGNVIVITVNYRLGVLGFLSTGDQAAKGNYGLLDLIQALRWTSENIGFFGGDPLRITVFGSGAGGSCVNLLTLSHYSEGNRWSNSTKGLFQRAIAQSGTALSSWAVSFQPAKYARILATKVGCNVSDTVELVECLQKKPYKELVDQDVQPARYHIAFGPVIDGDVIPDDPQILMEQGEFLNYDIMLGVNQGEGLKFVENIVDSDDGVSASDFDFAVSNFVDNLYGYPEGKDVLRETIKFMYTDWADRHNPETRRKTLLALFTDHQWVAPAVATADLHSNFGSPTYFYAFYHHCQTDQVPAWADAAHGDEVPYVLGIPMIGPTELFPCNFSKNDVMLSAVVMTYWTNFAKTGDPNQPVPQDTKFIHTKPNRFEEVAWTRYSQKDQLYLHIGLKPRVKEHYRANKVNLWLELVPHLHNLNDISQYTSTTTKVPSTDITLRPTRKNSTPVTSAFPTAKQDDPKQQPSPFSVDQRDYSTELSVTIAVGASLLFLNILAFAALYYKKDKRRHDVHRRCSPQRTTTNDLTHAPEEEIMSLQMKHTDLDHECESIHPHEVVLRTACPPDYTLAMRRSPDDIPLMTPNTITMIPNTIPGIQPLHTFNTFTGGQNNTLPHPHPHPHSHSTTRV

Assay [1] addresses T1, cadherin-11 (mouse (endogenous in P14 forebrain)) (UniProt P55288).
T1 sequence: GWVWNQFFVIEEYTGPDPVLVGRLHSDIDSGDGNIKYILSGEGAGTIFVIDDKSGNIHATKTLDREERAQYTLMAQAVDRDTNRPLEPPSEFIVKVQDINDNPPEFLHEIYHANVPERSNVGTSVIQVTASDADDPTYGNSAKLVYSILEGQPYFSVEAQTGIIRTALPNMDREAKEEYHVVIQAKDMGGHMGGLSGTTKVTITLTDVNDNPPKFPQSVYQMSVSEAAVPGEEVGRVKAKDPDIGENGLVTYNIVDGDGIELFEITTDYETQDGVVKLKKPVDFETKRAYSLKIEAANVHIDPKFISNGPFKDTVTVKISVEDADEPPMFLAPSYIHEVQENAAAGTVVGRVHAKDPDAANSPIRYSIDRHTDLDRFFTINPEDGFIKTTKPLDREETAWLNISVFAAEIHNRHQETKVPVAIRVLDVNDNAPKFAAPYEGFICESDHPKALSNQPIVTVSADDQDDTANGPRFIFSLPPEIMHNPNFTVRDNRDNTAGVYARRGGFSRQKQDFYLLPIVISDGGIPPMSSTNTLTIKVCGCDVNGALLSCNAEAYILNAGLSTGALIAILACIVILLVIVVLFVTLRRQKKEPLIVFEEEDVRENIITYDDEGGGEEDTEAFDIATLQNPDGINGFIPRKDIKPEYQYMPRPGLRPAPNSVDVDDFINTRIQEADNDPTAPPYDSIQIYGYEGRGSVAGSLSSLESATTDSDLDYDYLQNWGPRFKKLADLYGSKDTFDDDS
The experiment in a line: co-IP; P14 mouse forebrain lysate (20 mM Tris pH 7.5, 150 mM NaCl, 1% Triton X-100), 0.5 mg protein extract precleared; IP with 2 μg anti-cadherin-8 or 7 μg anti-cadherin-11 for 2 h at 4°C, Protein-G or rProtein A Sepharose, three washes in lysis buffer; Western blot; mouse or rabbit IgG as control.

The target in assay [2] is T2, cadherin-8 (mouse (endogenous in P14 forebrain)) (UniProt P97291).
T2 sequence: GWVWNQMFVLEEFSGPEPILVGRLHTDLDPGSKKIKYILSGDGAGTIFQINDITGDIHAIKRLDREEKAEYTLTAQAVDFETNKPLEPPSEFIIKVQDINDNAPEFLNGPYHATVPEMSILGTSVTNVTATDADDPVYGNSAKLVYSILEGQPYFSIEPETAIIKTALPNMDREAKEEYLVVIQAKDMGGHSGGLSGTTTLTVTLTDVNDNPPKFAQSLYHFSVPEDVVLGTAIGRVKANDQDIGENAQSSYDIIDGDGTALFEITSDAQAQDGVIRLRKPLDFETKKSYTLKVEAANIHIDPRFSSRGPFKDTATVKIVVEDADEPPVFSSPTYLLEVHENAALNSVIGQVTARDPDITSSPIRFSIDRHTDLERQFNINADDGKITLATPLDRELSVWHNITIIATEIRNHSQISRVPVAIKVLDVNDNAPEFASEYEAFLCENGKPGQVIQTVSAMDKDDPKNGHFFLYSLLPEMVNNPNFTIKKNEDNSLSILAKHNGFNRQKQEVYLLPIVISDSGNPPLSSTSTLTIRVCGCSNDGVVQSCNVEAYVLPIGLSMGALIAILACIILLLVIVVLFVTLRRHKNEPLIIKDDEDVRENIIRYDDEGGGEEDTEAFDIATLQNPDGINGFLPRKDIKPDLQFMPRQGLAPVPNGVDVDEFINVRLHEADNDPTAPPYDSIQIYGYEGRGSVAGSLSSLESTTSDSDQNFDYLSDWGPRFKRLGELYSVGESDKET
Described as above.

Results are given in words; binding and its absence hold for the method and conditions named. In cells and extracts the contact can be indirect. Some entries that bind do so weakly or less than the wild type.

As for “N-cadherin (from UniProt P15116 160-906)”, the binding result in assay [1] and in assay [2] was “no binding” each time.
For β-catenin (from UniProt Q02248 1-781), the binding entry in assay [1] and in assay [2] was “binds” in each case.
Regarding “neuroligin-1 (from UniProt Q99K10 46-843)”, the values for the binding entry in assay [1] and in assay [2] were “no binding” and “binds”, respectively.
